{"source": "a compilation of properties of binary mixtures (doi:10.1016/j.jtice.2014.04.012)", "assay": "xn = mol fraction of the nth substance listed", "details": "100 kPa", "note": "Some of these densities may be calculated back from excess volumes."}
{"smiles": "CCCC[n+]1ccn(C)c1.F[B-](F)(F)F", "note": "+ CN(C)C=O", "values": [{"measurement": "mass density", "setting": "303.15 K, x1 = 0.2015", "value": 1048.1, "unit": "kg/m3"}, {"measurement": "mass density", "setting": "303.15 K, x1 = 0.3022", "value": 1082.2, "unit": "kg/m3"}, {"measurement": "mass density", "setting": "303.15 K, x1 = 0.4024", "value": 1109, "unit": "kg/m3"}, {"measurement": "mass density", "setting": "303.15 K, x1 = 0.502", "value": 1130.7, "unit": "kg/m3"}, {"measurement": "mass density", "setting": "303.15 K, x1 = 0.6024", "value": 1148.9, "unit": "kg/m3"}, {"measurement": "mass density", "setting": "303.15 K, x1 = 0.7019", "value": 1164, "unit": "kg/m3"}, {"measurement": "mass density", "setting": "303.15 K, x1 = 0.8015", "value": 1177.1, "unit": "kg/m3"}, {"measurement": "mass density", "setting": "303.15 K, x1 = 0.9002", "value": 1188.2, "unit": "kg/m3"}, {"measurement": "mass density", "setting": "303.15 K, x1 = 1", "value": 1198, "unit": "kg/m3"}, {"measurement": "mass density", "setting": "313.15 K, x1 = 0.1008", "value": 994, "unit": "kg/m3"}, {"measurement": "mass density", "setting": "313.15 K, x1 = 0.2015", "value": 1039.6, "unit": "kg/m3"}, {"measurement": "mass density", "setting": "313.15 K, x1 = 0.3022", "value": 1074.1, "unit": "kg/m3"}, {"measurement": "mass density", "setting": "313.15 K, x1 = 0.4024", "value": 1101.2, "unit": "kg/m3"}, {"measurement": "mass density", "setting": "313.15 K, x1 = 0.502", "value": 1123.1, "unit": "kg/m3"}, {"measurement": "mass density", "setting": "313.15 K, x1 = 0.6024", "value": 1141.4, "unit": "kg/m3"}, {"measurement": "mass density", "setting": "313.15 K, x1 = 0.7019", "value": 1156.6, "unit": "kg/m3"}, {"measurement": "mass density", "setting": "313.15 K, x1 = 0.9002", "value": 1181.1, "unit": "kg/m3"}, {"measurement": "mass density", "setting": "323.15 K, x1 = 0.1008", "value": 985.1, "unit": "kg/m3"}, {"measurement": "mass density", "setting": "323.15 K, x1 = 0.2015", "value": 1031.2, "unit": "kg/m3"}, {"measurement": "mass density", "setting": "323.15 K, x1 = 0.4024", "value": 1093.3, "unit": "kg/m3"}, {"measurement": "mass density", "setting": "323.15 K, x1 = 0.502", "value": 1115.4, "unit": "kg/m3"}, {"measurement": "mass density", "setting": "323.15 K, x1 = 0.6024", "value": 1133.9, "unit": "kg/m3"}, {"measurement": "mass density", "setting": "323.15 K, x1 = 0.8015", "value": 1162.6, "unit": "kg/m3"}, {"measurement": "mass density", "setting": "323.15 K, x1 = 0.9002", "value": 1173.9, "unit": "kg/m3"}, {"measurement": "mass density", "setting": "323.15 K, x1 = 1", "value": 1183.9, "unit": "kg/m3"}, {"measurement": "mass density", "setting": "333.15 K, x1 = 0.1008", "value": 976.2, "unit": "kg/m3"}, {"measurement": "mass density", "setting": "333.15 K, x1 = 0.2015", "value": 1022.8, "unit": "kg/m3"}, {"measurement": "mass density", "setting": "333.15 K, x1 = 0.3022", "value": 1057.9, "unit": "kg/m3"}, {"measurement": "mass density", "setting": "333.15 K, x1 = 0.4024", "value": 1085.5, "unit": "kg/m3"}, {"measurement": "mass density", "setting": "333.15 K, x1 = 0.502", "value": 1107.8, "unit": "kg/m3"}, {"measurement": "mass density", "setting": "333.15 K, x1 = 0.6024", "value": 1126.5, "unit": "kg/m3"}, {"measurement": "mass density", "setting": "333.15 K, x1 = 0.8015", "value": 1155.4, "unit": "kg/m3"}, {"measurement": "mass density", "setting": "333.15 K, x1 = 0.9002", "value": 1166.9, "unit": "kg/m3"}, {"measurement": "mass density", "setting": "333.15 K, x1 = 1", "value": 1176.9, "unit": "kg/m3"}]}
{"smiles": "CN(C)C=O", "note": "+ CCCC[n+]1ccn(C)c1.F[B-](F)(F)F", "values": [{"measurement": "mass density", "setting": "303.15 K, x2 = 0", "value": 939.1, "unit": "kg/m3"}, {"measurement": "mass density", "setting": "313.15 K, x2 = 0", "value": 929.6, "unit": "kg/m3"}, {"measurement": "mass density", "setting": "323.15 K, x2 = 0", "value": 919.9, "unit": "kg/m3"}]}
